# Experimental data from PMC9911399, “Two distinct binding modes provide the RNA-binding protein RbFox with extraordinary sequence specificity”.
# Positions count from the first letter of the chain named. This is one part of the list.
# T1: RBFOX1 RRM (Homo sapiens, UniProt Q9NWB1 109-208)
# T1 sequence: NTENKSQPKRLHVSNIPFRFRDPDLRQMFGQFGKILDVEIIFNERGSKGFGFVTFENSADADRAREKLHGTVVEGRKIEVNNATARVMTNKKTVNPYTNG
# B1: GGAGGCG (DNA:RNA)
# RNA: GGGAGACCGGAAUUCAGAUUGUCCGGAGGCGUUAAAUCCCGUCGUAGCCACCA
# DNA 1: CAATCTGAATTCCGGTCTCCC
# DNA 2: TGGTGGCTACGACGGGATT
# B2: CAGUACA (DNA:RNA)
# RNA: B1 RNA with G25C, G26A, A27G, G28U, G29A, G31A
# DNA 1: CAATCTGAATTCCGGTCTCCC
# DNA 2: TGGTGGCTACGACGGGATT
# B3: CUCAUCG (DNA:RNA)
# RNA: B1 RNA with G25C, G26U, A27C, G28A, G29U
# DNA 1: CAATCTGAATTCCGGTCTCCC
# DNA 2: TGGTGGCTACGACGGGATT
# B4: GCGCGGC (DNA:RNA)
# RNA: B1 RNA with G26C, A27G, G28C, C30G, G31C
# DNA 1: CAATCTGAATTCCGGTCTCCC
# DNA 2: TGGTGGCTACGACGGGATT
# B5: GACCUUU (DNA:RNA)
# RNA: B1 RNA with G26A, A27C, G28C, G29U, C30U, G31U
# DNA 1: CAATCTGAATTCCGGTCTCCC
# DNA 2: TGGTGGCTACGACGGGATT
# B6: UUUCAUU (DNA:RNA)
# RNA: GGGAGACCGGAAUUCAGAUUGUCCUUUCAUUUUAAAUCCCGUCGUAGCCACCA
# DNA 1: CAATCTGAATTCCGGTCTCCC
# DNA 2: TGGTGGCTACGACGGGATT
# B7: CAGGGGU (DNA:RNA)
# RNA: B1 RNA with G25C, G26A, A27G, C30G, G31U
# DNA 1: CAATCTGAATTCCGGTCTCCC
# DNA 2: TGGTGGCTACGACGGGATT
# B8: GUAACUU (DNA:RNA)
# RNA: B6 RNA with U25G, U27A, C28A, A29C
# DNA 1: CAATCTGAATTCCGGTCTCCC
# DNA 2: TGGTGGCTACGACGGGATT
# B9: UUCCAAC (DNA:RNA)
# RNA: B6 RNA with U27C, U30A, U31C
# DNA 1: CAATCTGAATTCCGGTCTCCC
# DNA 2: TGGTGGCTACGACGGGATT
# B10: GUCUUUU (DNA:RNA)
# RNA: B6 RNA with U25G, U27C, C28U, A29U
# DNA 1: CAATCTGAATTCCGGTCTCCC
# DNA 2: TGGTGGCTACGACGGGATT
# B11: AAUUACG (DNA:RNA)
# RNA: B1 RNA with G25A, G26A, A27U, G28U, G29A
# DNA 1: CAATCTGAATTCCGGTCTCCC
# DNA 2: TGGTGGCTACGACGGGATT
# B12: CCUCGUU (DNA:RNA)
# RNA: B6 RNA with U25C, U26C, A29G
# DNA 1: CAATCTGAATTCCGGTCTCCC
# DNA 2: TGGTGGCTACGACGGGATT
# B13: UCGUGUC (DNA:RNA)
# RNA: B6 RNA with U26C, U27G, C28U, A29G, U31C
# DNA 1: CAATCTGAATTCCGGTCTCCC
# DNA 2: TGGTGGCTACGACGGGATT
# B14: GAGCGCU (DNA:RNA)
# RNA: B1 RNA with G26A, A27G, G28C, G31U
# DNA 1: CAATCTGAATTCCGGTCTCCC
# DNA 2: TGGTGGCTACGACGGGATT
# B15: GCAUAUA (DNA:RNA)
# RNA: B1 RNA with G26C, G28U, G29A, C30U, G31A
# DNA 1: CAATCTGAATTCCGGTCTCCC
# DNA 2: TGGTGGCTACGACGGGATT
# B16: GGAGGCC (DNA:RNA)
# RNA: B1 RNA with G31C
# DNA 1: CAATCTGAATTCCGGTCTCCC
# DNA 2: TGGTGGCTACGACGGGATT
# B17: CCCCCUU (DNA:RNA)
# RNA: B6 RNA with U25C, U26C, U27C, A29C
# DNA 1: CAATCTGAATTCCGGTCTCCC
# DNA 2: TGGTGGCTACGACGGGATT
# B18: UCCAGAG (DNA:RNA)
# RNA: B1 RNA with G25U, G26C, A27C, G28A, C30A
# DNA 1: CAATCTGAATTCCGGTCTCCC
# DNA 2: TGGTGGCTACGACGGGATT
# B19: UACACGC (DNA:RNA)
# RNA: B6 RNA with U26A, U27C, C28A, A29C, U30G, U31C
# DNA 1: CAATCTGAATTCCGGTCTCCC
# DNA 2: TGGTGGCTACGACGGGATT
# B20: CUUGGUG (DNA:RNA)
# RNA: B1 RNA with G25C, G26U, A27U, C30U
# DNA 1: CAATCTGAATTCCGGTCTCCC
# DNA 2: TGGTGGCTACGACGGGATT
# Biological target: T1, RBFOX1 RRM
# Assay: EMSA; HiTS-Eq, 1 nM pool, 10 min; buffer printed only for the single-RNA assays: 10 mM Tris pH 7.5, 150 mM NaCl, 3.4 mM EDTA, 0.001% NP-40, 30 C
# Conditions: tags: His6 N-terminal (pET28a); label: 5' 32P
# In short: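 A pool of RNA with 7 randomized nucleotides, 5′-radiolabelled and with DNA-annealed flanks, was equilibrated at 1 nM for 10 min in 50 µL with purified RbFox RRM, wild type or mutant, across increasing protein concentrations. Free RNA was separated by 8% native PAGE, excised, reverse-transcribed, barcoded by PCR and sequenced. Relative association constants were obtained from read-count changes of each RNA species versus the control reaction and normalised to the cognate motif.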
row,Binder,binding signal
1,B1,0.0203 KA relative to UGCAUGU
2,B2,0.00256 KA relative to UGCAUGU
3,B3,0.00489 KA relative to UGCAUGU
4,B4,0.0209 KA relative to UGCAUGU
5,B5,0.00717 KA relative to UGCAUGU
6,B6,0.00437 KA relative to UGCAUGU
7,B7,0.0132 KA relative to UGCAUGU
8,B8,0.00362 KA relative to UGCAUGU
9,B9,0.00154 KA relative to UGCAUGU
10,B10,0.0163 KA relative to UGCAUGU
11,B11,0.00307 KA relative to UGCAUGU
12,B12,0.0102 KA relative to UGCAUGU
13,B13,0.0187 KA relative to UGCAUGU
14,B14,0.0156 KA relative to UGCAUGU
15,B15,0.0014 KA relative to UGCAUGU
16,B16,0.0168 KA relative to UGCAUGU
17,B17,0.00206 KA relative to UGCAUGU
18,B18,0.0125 KA relative to UGCAUGU
19,B19,0.00712 KA relative to UGCAUGU
20,B20,0.0206 KA relative to UGCAUGU
